# Measured values from PMC12136788.
# Changes are numbered by the printed parent chain. The list shows a part of the results.
# B1: chr2:219460011:219460012:+_ENSG00000144580_ENST00000542068|hu_hu|motif|central (ssRNA)
# RNA: GGGAGUUCUACAGUCCGACGAUCAGCUAAUACUGCUCAAGUACAAUCAUGAAGACAGAUGGAGCUGCUGAAAUUCACACGGAAACAAAGAAAAGGAUCAAGUGGACUGUCACCUUAAUCCCAAGCACCUCCCUUUUAGAGUUACAACAGAGGAUUGAGCAUCA
# B2: chr5:31552970:31552971:+_ENSG00000082213_ENST00000325366|hu_mus|FALSE|FALSE (ssRNA)
# RNA: GGGAGUUCUACAGUCCGACGAUCCUGGAAGCCCAGAAACAAAAGCCGGGUCUGUCACUGCGCCAAACUGCACAGCAGCCUAGCACGGUCUCAGCUCAGAGGGGACUCUUCUGAGUACACCAGGUGAGUGUCCAGGGUCCCGUACAACAGAGGAUUGAGCAUCA
# B3: chr3:19126987:19126988:-_ENSMUSG00000069094_ENSMUST00000091314|mus_mus|FALSE|FALSE (ssRNA)
# RNA: GGGAGUUCUACAGUCCGACGAUCGAAUCUGCAUUGCCAACCACGCUGGAGUGAAAAGCUUCGUGUGGCGUCUGUGGUAAAUAAAUGCUCAGUCUCCAGGCACAGAGCAGAGCAGCAGGUGGGAGGCGAUGAUGACAUUGACAUCAACAGAGGAUUGAGCAUCA
# B4: chr19:8913615:8913616:-_ENSMUSG00000071658_ENSMUST00000096259|mus_hu|mus_mus_mus_hu_False|58_58 (ssRNA)
# RNA: GGGAGUUCUACAGUCCGACGAUCAGGGUACCAAAACCUUCUGCCUGAAAUGGGUGCCCCACCCAGUAGGGAGUUGCAGCUAAAAAUAUCUGAUGCAGAAGCAGUGACUAUACGAAAGGAGGCCCCUGGGGAGGGCCAGGCCAGCAACAGAGGAUUGAGCAUCA
# B5: chr19:8913615:8913616:-_ENSMUSG00000071658_ENSMUST00000096259|mus_hu|mus_mus_mus_hu_False|58_68 (ssRNA)
# RNA: B4 RNA with A67C, G68A, G72C, C76G
# B6: 8408022_8408142_3574_CDS_ENSG00000133026_ENST00000269243|human|control|control (ssRNA)
# RNA: GGGAGUUCUACAGUCCGACGAUCCUGGGCUGCCGUGGUGUCCAGCGUGUCCUCCAGCUCUGUUUUCAGAGCUUCCAGUUCCUCACUCAAGUCCCUUUUCUGCUUUUCGGCCUUGUUCCGUGAAGCCUUCUCGGAUUCAAAGUCCAACAGAGGAUUGAGCAUCA
# Target: T1, UNK ZnF1-3 (human, UniProt Q9C0B0 31-174)
# T1 sequence: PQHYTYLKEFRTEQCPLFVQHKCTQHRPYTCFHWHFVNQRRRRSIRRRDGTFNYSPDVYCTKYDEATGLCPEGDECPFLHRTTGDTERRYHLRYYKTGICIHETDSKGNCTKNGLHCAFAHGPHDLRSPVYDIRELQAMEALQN
# Assay: nsRBNS (natural sequence RNA bind-n-seq); RBNS binding buffer (assumed for nsRBNS): 25 mM Tris pH 7.5, 150 mM KCl, 3 mM MgCl2, 0.01% Triton X-100, 500 ug/ml BSA, 20 U/ml SUPERase-In, 4 C; UNK is unkempt and MSI1 is Musashi-1; names of the RNAs are library labels; protein concentration not given here; high values mean tight binding
row,Binder,binding signal
1,B1,1.6 enrichment R
2,B2,0.767 enrichment R
3,B3,1.09 enrichment R
4,B4,1.76 enrichment R
5,B5,1.47 enrichment R
6,B6,0.277 enrichment R
